# Source: PubChem BioAssay AID602310 (National Center for Advancing Translational Sciences (NCATS), 2012)
# Out of some 410,000 compounds screened, about 310 (0.076%) were called active. This list was built around the results that the source calls inconclusive (neither active nor inactive); the mix of calls is not that of the screen. Calls come from the whole dose curve; as a rule, active = well fitted curve in the direction sought with a large enough effect; inconclusive = small, poorly fitted or top-dose-only effect; inactive = flat fitted curve, though single readings scatter. Where the call is inconclusive, the potency comes from a doubtful curve fit.
# Molecular target: DNA dC->dU-editing enzyme APOBEC-3G (Homo sapiens) (UniProt Q9HC16)
# Sequence of UniProt Q9HC16 (Q9HC16 whole entry, looked up): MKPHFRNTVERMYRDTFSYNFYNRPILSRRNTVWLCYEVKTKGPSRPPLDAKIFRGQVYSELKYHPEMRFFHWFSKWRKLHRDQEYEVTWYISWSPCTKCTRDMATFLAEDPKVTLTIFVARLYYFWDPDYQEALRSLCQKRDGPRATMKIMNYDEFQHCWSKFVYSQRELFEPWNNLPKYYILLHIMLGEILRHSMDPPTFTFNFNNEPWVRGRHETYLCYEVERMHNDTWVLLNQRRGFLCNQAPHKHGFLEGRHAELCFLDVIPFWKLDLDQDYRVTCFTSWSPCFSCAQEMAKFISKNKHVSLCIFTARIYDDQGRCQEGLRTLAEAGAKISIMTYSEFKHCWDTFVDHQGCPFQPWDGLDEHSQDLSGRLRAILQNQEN
# Assay: qHTS for Inhibitors of Vif-A3G Interactions: qHTS; note: nearly all actives have a fitted effect of over 60% in size
# Settings: HeLa A3G-eYFP + Vif (tagged APOBEC3G with the HIV-1 protein that degrades it), YFP fluorescence, overnight; series mostly up to 46.1 µM
# In short: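 HeLa cells stably expressing Vif and C-terminally eYFP-tagged A3G, seeded overnight at 37 deg C, then exposed to compound by pintool overnight at 37 deg C. Rise in yellow fluorescence (Ex 488/Em 500-530, Acumen) marks blocked Vif-driven A3G degradation.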
# Potency is the fitted concentration of half-maximal effect; tags give direction and shape of the fitted curve.
row,Structure (SMILES),Potency
1,Cc1ccc(NC(=O)COC(=O)c2csc3c2CCC(C)C3)cc1S(=O)(=O)N1CCCCC1 (centres undefined),"inconclusive: 5.62 µM [inhibitor, single point]"
2,O=C(O)c1ccc(NN=CC2=C(N3CCOCC3)/C(=C/c3ccccc3)CC2)cc1,"inconclusive: 31.6 µM [inhibitor, single point]"
3,CCOC(=O)c1sc(NC(=O)CC(C)c2ccccc2)nc1C (centres undefined),"inconclusive: 3.55 µM [inhibitor, full curve, poor fit]"
4,CCc1ccc(NC(=O)c2cc(=O)c3ccc(C)c(C)c3o2)cc1,"inconclusive: 2.24 µM [inhibitor, full curve, poor fit]"
5,COC(=O)CN1C(=O)CSc2ccc(S(=O)(=O)Nc3ccc(C)c(Cl)c3)cc21,inactive
6,CCOC(=O)C1=C(N)Oc2cc(O)ccc2C1c1cccc([N+](=O)[O-])c1 (centres undefined),"inconclusive: 22.4 µM [inhibitor, single point]"
7,CN1CCS/C1=C/C=C1/SC(=S)N(Cc2ccccc2)C1=O,"inconclusive: 2.82 µM [inhibitor, partial curve, poor fit]"
8,O=C(c1ccc(S(=O)(=O)c2ccc(F)cc2)c([N+](=O)[O-])c1)N1CCCCCC1,"inconclusive: 25.1 µM [inhibitor, single point]"
9,COc1ccc(/C=C2\SC(=Nc3ccccc3OC)NC2=O)cc1,"inconclusive: 3.16 µM [inhibitor, partial curve, poor fit]"
10,O=C(NN=C(c1ccccc1)c1ccccn1)c1ccccc1,"inconclusive: 35.5 µM [inhibitor, single point]"
11,COC(=O)Cc1ccc(NC(=S)Nc2ccccn2)cc1,inactive
12,CC(C)Oc1ccc(CNC(=O)c2cnc3sc(N4CCCC4)nn3c2=O)cc1,inactive
13,Cc1cc(C(=O)OCC(=O)NCc2ccco2)c(C)n1-c1ccc(F)cc1,"inconclusive: 1.26 µM [inhibitor, full curve, poor fit]"
14,COc1cc(C=C2CN(C)C(=O)C2=O)ccc1O,inactive
15,COc1cccc(NC(=O)C(C)n2c(=O)cc(C(F)(F)F)c3c(C)nn(C)c32)c1 (centres undefined),inactive
16,Fc1ccccc1NC(=S)N(CCN1CCCCC1)Cc1ccco1,inactive
17,C/C(=N\NC(=S)Nc1ccc(F)cc1)c1ccc2c(c1)OCCO2,"inconclusive: 3.55 µM [inhibitor, full curve, poor fit]"
18,C[C@H](CO)N1C[C@H](C)[C@@H](CN(C)Cc2ccncc2)Oc2ncc(Br)cc2C1=O,inactive
19,COc1ccc(N2CC(C(=O)Nc3ccccc3N3CCCC3)CC2=O)c(OC)c1 (centres undefined),"inconclusive: 3.98 µM [inhibitor, full curve]"
20,Cc1ccccc1OCc1occc1C(=O)Nc1cccc(-n2cnnn2)c1,"inconclusive: 6.31 µM [inhibitor, full curve, poor fit]"
21,COc1ccc(C(=O)/C=C/Nc2ccc([N+](=O)[O-])cc2C)c(OC)c1,inactive
22,O=C(c1cnccn1)N1CCc2c([nH]c3ccccc23)C1c1cccc(Cl)c1 (centres undefined),"inconclusive: 20 µM [inhibitor, single point]"

row,Structure (SMILES),Potency
1,CC(=O)Nc1ccc(N=c2cc([N+](=O)[O-])cc(Cl)n2O)cc1,"inconclusive: 22.4 µM [inhibitor, single point]"
2,c1ccc(Nc2ccc3c4c(cccc24)CC3)cc1,"inconclusive: 35.5 µM [inhibitor, single point]"
3,CCN(C(=O)c1c(C)oc2ncnc(N3CCCCC3)c12)c1cc(C)ccc1C,inactive
4,O=c1c2ccc(Cl)cc2[nH]c(=S)n1Cc1cccnc1,inactive
5,CC[n+]1ccc(/C=C2\Sc3ccccc3N2CCCS(=O)(=O)[O-])c2ccccc21,"inconclusive: 2 µM [inhibitor, full curve]"
6,COC(=O)c1cc(OC)c(OCc2cc(C(=O)OC)oc2C)c(OC)c1,"inconclusive: 35.5 µM [inhibitor, single point]"
7,Cc1ccccc1OCC(=O)NNC(=O)Nc1ccc(Cl)cc1,"inconclusive: 7.08 µM [inhibitor, full curve]"
8,O=C(/C=C/c1cccc2ccccc12)c1ccncc1,"inconclusive: 14.1 µM [inhibitor, single point]"
9,COc1ccc(C2C(C(=O)Nc3ccccc3)=C(C)Nc3nc(-c4ccc(Cl)cc4)nn32)cc1 (centres undefined),"inconclusive: 17.8 µM [inhibitor, single point]"
10,Nn1c(Cc2ccc(Br)cc2)n[nH]c1=S,inactive
11,Cc1ccc(S(=O)(=O)N2[C@@H](c3ccccc3F)C(C(=O)O)=CC[C@H]2c2ccc(C(C)C)cc2)cc1,inactive
12,Cc1cc(C)c(-c2c(N)cc(Br)cc2Br)c(N)c1,"inconclusive: 35.5 µM [inhibitor, partial curve, poor fit]"
13,Cc1ccc(S(=O)(=O)Nc2cc(C)c(O)c(Sc3n[nH]c(C)n3)c2)cc1,"inconclusive: 28.2 µM [inhibitor, single point]"
14,Cc1cc(C)cc(NC2=NC3(CCCCC3)N=C(N)N2)c1,"inconclusive: 7.08 µM [inhibitor, partial curve, poor fit]"
15,Cc1ccc(N/C(N)=N/c2nc(C)cc(C)n2)cc1,inactive
16,COc1cc(OC)c(NC2=CC(=O)C(=O)c3ccccc32)cc1Cl,"inconclusive: 1 µM [inhibitor, full curve, poor fit]"
17,CCc1nnc2n1N=C(c1ccc(OC)cc1)CS2,"inconclusive: 17.8 µM [inhibitor, single point]"
18,O=C(CC1Nc2ccccc2NC1=O)Nc1ccccc1 (centres undefined),"inconclusive: 12.6 µM [inhibitor, partial curve, poor fit]"
19,O=C1NC(=O)C(c2cn(-c3ccccc3)nc2-c2ccc(F)cc2)N1 (centres undefined),inactive
20,COc1cc(-c2noc(C)c2/C=C/c2ccc(C(=O)O)cc2)cc(OC)c1OC,"inconclusive: 10 µM [inhibitor, partial curve, poor fit]"
21,COc1ccc(S(=O)(=O)N(CC(=O)NC2CC3CCC2C3)c2ccccc2OC)cc1 (centres undefined),inactive
22,CCOc1ccc(/C=C/c2ccc3ccccc3[n+]2C)cc1OCC,"inconclusive: 22.4 µM [inhibitor, single point]"
